Results as given in publication PMC4336329 (PLoS ONE, 2015).
Among all 310,000 compounds or so, about 2,200 (0.71%) showed an effect of 50% or more. The effect is printed as a negative number. This is one part of the list.

molecular target: human ether-à-go-go-related gene (hERG) potassium channel (human, UniProt Q12809); assay: primary screen, population patch clamp on CHO cells stably expressing hERG
Sequence (Q12809 whole entry, looked up): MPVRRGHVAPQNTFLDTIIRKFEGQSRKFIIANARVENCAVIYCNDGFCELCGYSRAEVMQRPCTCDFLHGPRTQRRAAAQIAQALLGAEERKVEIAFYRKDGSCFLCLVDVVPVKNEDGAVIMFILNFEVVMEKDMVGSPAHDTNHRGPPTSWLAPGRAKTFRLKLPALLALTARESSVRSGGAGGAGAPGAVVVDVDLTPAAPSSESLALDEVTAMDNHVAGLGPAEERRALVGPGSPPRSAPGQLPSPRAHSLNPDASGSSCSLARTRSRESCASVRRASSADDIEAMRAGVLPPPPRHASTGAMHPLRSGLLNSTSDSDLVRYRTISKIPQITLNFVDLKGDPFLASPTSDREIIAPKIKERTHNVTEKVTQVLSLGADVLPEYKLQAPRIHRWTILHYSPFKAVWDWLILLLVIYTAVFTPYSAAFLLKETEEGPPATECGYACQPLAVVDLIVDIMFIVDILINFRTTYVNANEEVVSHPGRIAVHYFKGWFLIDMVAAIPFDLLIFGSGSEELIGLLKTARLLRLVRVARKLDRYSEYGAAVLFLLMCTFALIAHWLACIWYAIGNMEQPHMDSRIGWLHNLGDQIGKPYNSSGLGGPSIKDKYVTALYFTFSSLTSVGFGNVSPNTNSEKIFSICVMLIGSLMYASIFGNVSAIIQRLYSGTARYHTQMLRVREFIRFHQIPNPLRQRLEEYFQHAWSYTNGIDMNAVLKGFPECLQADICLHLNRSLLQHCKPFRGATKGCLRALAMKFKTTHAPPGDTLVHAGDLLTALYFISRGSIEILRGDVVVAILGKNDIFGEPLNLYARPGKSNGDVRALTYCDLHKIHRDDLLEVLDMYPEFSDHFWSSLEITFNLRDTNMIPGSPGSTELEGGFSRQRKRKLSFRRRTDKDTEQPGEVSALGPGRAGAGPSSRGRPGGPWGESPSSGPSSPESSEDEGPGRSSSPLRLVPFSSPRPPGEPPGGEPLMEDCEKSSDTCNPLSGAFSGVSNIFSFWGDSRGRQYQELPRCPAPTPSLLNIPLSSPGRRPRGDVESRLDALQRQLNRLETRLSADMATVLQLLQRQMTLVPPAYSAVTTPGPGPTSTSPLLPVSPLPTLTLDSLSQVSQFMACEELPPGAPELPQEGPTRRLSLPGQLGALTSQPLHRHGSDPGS

Compound | hERG current change (%, negative = inhibition) at 1uM
Cc1cccc(NC(=O)C2CCCN(S(=O)(=O)c3ccc4[nH]c(=O)ccc4c3)C2)n1 (centres unmarked) | 5.81%
COCCN1CCN(Cc2cn(C)nc2-c2cccc(Cl)c2)CC1 | 7.46%
CCn1c(C2CC(=O)N(Cc3ccccc3)C2)nc2ccccc21 (centres unmarked) | 5.22%
CN(C)C=O.COc1ccccc1CNC(=O)COC(=O)c1ccc(NC(N)=O)cc1 | 14.8%
C=CCN(CC=C)C(=O)CCc1nnc(CCc2c[nH]c3ccccc23)o1 | 11.7%
COc1ccc(N(CC2CO2)S(=O)(=O)c2ccccc2)cc1 (centres unmarked) | 14.5%
CC(C)[C@@]1(c2ccccc2)ON(c2ccccc2C(F)(F)F)C1=O | -3.67%
CN1CCN(S(=O)(=O)c2ccc(NC(=S)NC(=O)C3CC3)cc2)CC1 | 0.304%
CCc1ccc(NC(=O)CS(=O)CC(=O)NCCCc2ccccc2)cc1 (centres unmarked) | 9.79%
Cc1cc(Br)cc(Br)c1OCC(=O)NNC(=O)c1ccoc1C | 13.8%
O=C(N/N=C/c1ccc2c(c1)OCO2)c1ccc2c(c1)OCCO2 | 12.8%
OC(COC(c1ccc(F)cc1)c1ccc(F)cc1)CN1CCc2ccccc2C1 (centres unmarked) | -9.74%
CC(=O)Nc1c(C(=O)O)[nH]c2ccccc12 | 18.5%
CC(C)(C)OC(=O)NCC(=O)N1CCC(C(=O)O)CC1 | 11.8%
COC(=O)c1ccc(C(C(=O)NC2CCCCC2)N(CCc2ccccc2)C(=O)Cc2cccs2)cc1 (centres unmarked) | 12.5%
CC(C)(C)C(=O)Nc1nc2c(s1)CN(Cc1ccccc1)CC2 | 12.3%
COc1ccccc1NC(=O)Cn1cnc2sc(C(=O)Nc3cc(OC)c(OC)c(OC)c3)c(C)c2c1=O | 30%
Cc1ccc(Cn2c(C(CO)Nc3nc(-c4ccc(F)cc4)cs3)nc3ccccc32)cc1 (centres unmarked) | 20.1%
Cc1ccc2c(c1)C1CN(C)CCC1N2C(=O)c1ccccc1NS(=O)(=O)c1ccc(F)cc1C.Cl (centres unmarked) | 6.21%

Compound | hERG current change (%, negative = inhibition) at 1uM
CN(C)/C=C/C(=O)c1ccc2noc(-c3ccc(F)cc3)c2c1 | 13.5%
CCOC(=O)c1cccc(P(=O)(C(C)(C)C)C(C)(C)C)c1 | 14.4%
COc1ccc(Cl)cc1NC(=O)CN(C)CC(=O)Nc1cc(OC)c(OC)c(OC)c1 | 8.22%
CC(=O)N=C1SC2CS(=O)(=O)CC2N1c1cccc(Cl)c1Cl (centres unmarked) | 5.93%
Cc1cc(C(=O)COc2ccc3ccc(=O)oc3c2)c(C)n1Cc1cccs1 | 5.71%
O=C(Cn1cnc2c(nnn2Cc2ccc(F)cc2)c1=O)Nc1ccc2c(c1)OCCO2 | -9.58%
Cc1ccc(NC(=O)c2cnccn2)c(OC(F)F)c1 | 3.8%
Cc1cccc(N2CCN(C(=O)CCn3c(=O)[nH]c4ccccc4c3=O)CC2)c1C | 3.22%
Cc1cc(-c2ccc(S(=O)(=O)Nc3ccc(C#N)cc3)s2)on1 | 18.2%
Cn1c(SCCc2ccc([N+](=O)[O-])cc2)nccc1=O | -13.9%
CCc1[nH]nc2c1C(c1ccncc1)C(C#N)=C(N)O2 (centres unmarked) | 10.1%
CCn1c(SCC(=O)NCC2CCCO2)nnc1-c1ccccc1OC (centres unmarked) | 12.8%
O=C(NCc1ccc2c(c1)OCO2)c1cc(-c2ccccc2Cl)on1 | 12.4%
Fc1ccccc1Cc1noc(CN(Cc2ccccn2)CC2CCCO2)n1 (centres unmarked) | 5.69%
Cc1ccc(S(=O)(=O)C(c2ccccc2)c2c(C)noc2C)cc1 (centres unmarked) | 13%
O=C(/C=C/c1cccc(Br)c1)NCc1ccncc1 | 6.96%
COC(=O)c1ccc(Cl)c(NC(=O)CN2CCN(C)CC2)c1 | -11.3%
COc1cc([N+](=O)[O-])ccc1NC(=O)CCCOc1ccc(C)cc1 | 4.14%
CCCCn1c(N)c(Br)c(=O)[nH]c1=O | 6.56%

Compound | hERG current change (%, negative = inhibition) at 1uM
CCc1ccc(NC(=O)c2cnccn2)cc1 | 8.37%
CCOC12NC(=O)CC(=O)N1C(c1ccccc1)=CS2 (centres unmarked) | -8.79%
CN(C)C(CNC(=O)c1cccc(S(=O)(=O)N2CC3(C)CC2CC(C)(C)C3)c1)c1ccco1 (centres unmarked) | 6.34%
COc1ccc(/C=C2\CCc3ccccc3C2=O)cc1Cn1nc(C)cc1C | 4.89%
CCCCN(CCO)c1ncnc2sc(-c3ccccc3)cc12 | 16.7%
Cc1cc(F)ccc1NC(=O)c1cc(S(=O)(=O)N2CCCC2)cn1C | 0.672%
CCCC1C2C(=O)N(c3ccccc3)C(=O)C2ON1c1ccccc1 (centres unmarked) | 14.1%
COc1ccc(/C=C2/SC(=O)N(CCCCCC(=O)Nc3ccccc3C(=O)O)C2=S)cc1 | 8.35%
C=C(C)C1CC=C(C)/C(=N/NC(=O)CCC(=O)Nc2ccccc2Cl)C1 (centres unmarked) | 6.51%
Cn1cc(C(=O)NCc2cccs2)c(=O)c2cc(S(=O)(=O)N3CCCC3)ccc21 | -0.439%
CCNC(=O)c1ccc(NC(=O)CC2SC(N3CCCCC3)=NC2=O)cc1 (centres unmarked) | -1.11%
CCN(CC(=O)NCc1cccs1)C(=O)/C=C/c1ccc(OC)c(OC)c1 | 4.45%
CCSc1nnc(N(CCC#N)CCC#N)s1 | 10.4%
Cc1ccc(S(=O)(=O)N2CCN(Cc3ccco3)CC2)cc1C | 12.5%
COc1ccc(CN2CCNC(=O)C2CC(=O)N2CCCN(C(C)=O)CC2)cc1OC (centres unmarked) | 13.6%
CC(NCc1cccc(Cl)c1Cl)C(O)c1ccccc1.Cl (centres unmarked) | 7.33%
COC(=O)c1c(N2C(=O)[C@H]3[C@@H](C2=O)[C@]2(C(=O)Nc4ccccc42)N2CCC[C@@H]32)sc(C)c1C | 15.5%
c1csc(C(c2nnnn2C2CCCC2)N2CCOCC2)c1 (centres unmarked) | 9.48%
